Test results: patent publication US20230322953A1 (HARBOUR BIOMED SHANGHAI, published 2023)
Where a chain is given by its changes, count along the chain named. Names may count otherwise. “And” between values parts separate entries of the source, which are not always exact repeats. Identical values can stand only once. Blank lines part the entries; values can stand above or below the binder they belong to.

Key:
human 4-1BB [1] = biological target: T1, human 4-1BB (human, UniProt Q07011 24-255); assay: flow cytometry, CHO-K1/hu 4-1BB cells
T1 construct: whole, on cells; also called CD137; TNFRSF9

human 4-1BB [2] = biological target: T1, human 4-1BB; assay: flow cytometry, CHO-K1/hu 4-1BB cells, after incubation in human serum at 37 C, day seven
T1 sequence (Q07011 24-255): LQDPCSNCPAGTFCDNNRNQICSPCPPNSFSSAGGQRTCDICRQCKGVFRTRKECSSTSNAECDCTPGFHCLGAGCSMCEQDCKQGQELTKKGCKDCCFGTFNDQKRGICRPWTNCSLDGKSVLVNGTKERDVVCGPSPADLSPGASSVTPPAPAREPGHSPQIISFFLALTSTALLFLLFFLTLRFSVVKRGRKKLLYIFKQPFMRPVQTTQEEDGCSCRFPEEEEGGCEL

human 4-1BB [3] = biological target: T1, human 4-1BB; assay: flow cytometry, CHO-K1/hu 4-1BB cells, after incubation in human serum at 37 C, day fourteen
human 4-1BB [4] = biological target: T1, human 4-1BB; assay: flow cytometry, CHO-K1/hu 4-1BB cells, after incubation in human serum at 37 C, day one
human 4-1BB [5] = biological target: T1, human 4-1BB; assay: flow cytometry, CHO-K1/hu 4-1BB cells, after incubation in human serum at 37 C, day two
human 4-1BB [6] = biological target: T1, human 4-1BB; assay: flow cytometry, CHO-K1/hu 4-1BB cells, after incubation in human serum at 37 C, day four
human 4-1BB [7] = biological target: T1, human 4-1BB; assay: flow cytometry, CHO-K1/hu 4-1BB cells, after incubation in human serum at 37 C, day fourteen; remark: listed apart in the source
human 4-1BB [8] = biological target: T1, human 4-1BB; assay: flow cytometry, CHO-K1/hu 4-1BB cells, after incubation in human serum at 37 C, day seven; remark: listed apart in the source
human 4-1BB [9] = biological target: T1, human 4-1BB; assay: flow cytometry, CHO-K1/hu 4-1BB cells, after incubation in human serum at 37 C, day two; remark: listed apart in the source
human 4-1BB [10] = biological target: T1, human 4-1BB; assay: flow cytometry, CHO-K1/hu 4-1BB cells, after incubation in human serum at 37 C, day one; remark: listed apart in the source
human 4-1BB [11] = biological target: T1, human 4-1BB; assay: flow cytometry, CHO-K1/hu 4-1BB cells, after incubation in human serum at 37 C, day four; remark: listed apart in the source
[12] = biological target: T2, human 4-1BB (tumor necrosis factor receptor superfamily member 9) (human, UniProt Q07011 24-255); assay: flow cytometry (FACS) on CHO-K1/hu 4-1BB cells
T2 construct: whole, on cells; also called hu 4-1BB; CD137

EC50 (human 4-1BB [1]): 0.483 nM | Maximum MFI (human 4-1BB [1]): 163000 | EC50 (human 4-1BB [2]): 0.68 nM | EC50 (human 4-1BB [3]): 0.851 nM | EC50 (human 4-1BB [4]): 0.841 nM | EC50 (human 4-1BB [5]): 0.769 nM | EC50 (human 4-1BB [6]): 0.607 nM
B1: PR003334 (bispecific antibody, human IgG1, kappa)
light: EIVMTQSPATLSVSPGERATLSCRASQSISSNLGWYQQKPGQAPRLLIYGASTRATGIPARFSGSGSGTEFTLTISSLQSEDFAVYYCQQYQSWPPLTFGGGTKVEIKRTVAAPSVFIFPPSDEQLKSGTASVVCLLNNFYPREAKVQWKVDNALQSGNSQESVTEQDSKDSTYSLSSTLTLSKADYEKHKVYACEVTHQGLSSPVTKSFNRGEC
heavy: QVQLVESGGGVVQPGRSLRLSCAASGFTFRSFGMHWVRQAPGKGLEWVAVISYDASNEYYADSVKGRFIISRDNSKDTLYLQMNSLRAGDTAVYYCAKGGGLRWYFAYWGQGTLVTVSSASTKGPSVFPLAPSSKSTSGGTAALGCLVKDYFPEPVTVSWNSGALTSGVHTFPAVLQSSGLYSLSSVVTVPSSSLGTQTYICNVNHKPSNTKVDKKV[human IgG1 Fc with changes not given here]EPKSSDKTHTPPPPPRTEVQLLESGGGLVQLGGSLRLSCAASGFTFSRYAMTWVRQAPEKGLEWVSSISGSGDDTYYGDSVKGRFTISRDNSQNTVYLQMNSLRAEDTAVYFCAKEKAGTTGDYYYNVDVWGQGTTVTVSS
notes: PR002408 IgG with PR001758 VH at C-terminus of heavy chain, linker H1_15-RT, human IgG1 (L234A, L235A); also called B7H4x4-1BB bispecific antibody, IgG-VH tetravalent symmetric structure (5)

EC50 (human 4-1BB [1]): 0.74 nM and 1.35 nM | EC50 (human 4-1BB [7]): 0.561 nM | EC50 (human 4-1BB [8]): 0.82 nM | EC50 (human 4-1BB [9]): 0.457 nM | EC50 (human 4-1BB [10]): 0.47 nM | EC50 (human 4-1BB [11]): 0.624 nM
B2: PR003335 (bispecific antibody, human IgG1, kappa)
light: B1 light
heavy: QVQLVESGGGVVQPGRSLRLSCAASGFTFRSFGMHWVRQAPGKGLEWVAVISYDASNEYYADSVKGRFIISRDNSKDTLYLQMNSLRAGDTAVYYCAKGGGLRWYFAYWGQGTLVTVSSASTKGPSVFPLAPSSKSTSGGTAALGCLVKDYFPEPVTVSWNSGALTSGVHTFPAVLQSSGLYSLSSVVTVPSSSLGTQTYICNVNHKPSNTKVDKKV[human IgG1 Fc with changes not given here]EPKSSDKTHTPPPPPRTEVQLVESGGGVVQPGGSLRLSCAASGFTFSNYAMTWVRQAPEKGLEWVSSISGSGVSTYYADSVKGRFTISRDNSKNTLYLQMTRLTAEDTAVYFCAKEGSSETDDHYYNVDVWGQGTTVTVSS
notes: PR002408 IgG with PR001760 VH at C-terminus of heavy chain, linker H1_15-RT, human IgG1 (L234A, L235A); also called B7H4x4-1BB bispecific antibody, IgG-VH tetravalent symmetric structure (5)

B3: Anti-4-1BB 79B10G8D4, hIgG4 (S228P) (antibody)
light: EFVMTQSPATLSVSPGERATLSCRASQSISSILAWYQQKPGQAPRLLIYGASTRATGIPARFSGSGSGTEFTLTISSLQSEDFAVYYCQQYYNWPLTFGGGTKVEIKRTVAAPSVFIFPPSDEQLKSGTASVVCLLNNFYPREAKVQWKVDNALQSGNSQESVTEQDSKDSTYSLSSTLTLSKADYEKHKVYACEVTHQGLSSPVTKSFNRGEC
heavy: QVQLQQWGAGLLKPSETLSLTCAVYGGSFSGYYWSWIRQPPGKGLEWIGEINHSGSTDSNPSLKGRVTFSVDTSKNQFSLKLNSVTAADTAVYYCARLTGPFDYWGQGTLVTVSSASTKGPSVFPLAPCSRSTSESTAALGCLVKDYFPEPVTVSWNSGALTSGVHTFPAVLQSSGLYSLSSVVTVPSSSLGTKTYTCNVDHKPSNTKVDKRV[human IgG4 Fc with S228P (EU numbers) not given here]
notes: hIgG4 (S228P); also called PR000197
EC50 [12]: 0.673 nM | Maximum MFI [12]: 15500 MFI

B4: Anti-4-1BB 79B10G8D4 (H: N52Q; L: F2I), hIgG4 (S228P) (antibody)
light: B3 light with F2I
heavy: B3 heavy with N52Q
notes: hIgG4 (S228P); also called PR000448
EC50 [12]: 0.947 nM | Maximum MFI [12]: 8180 MFI
